Experimental data from PubChem BioAssay AID2676 (National Center for Advancing Translational Sciences (NCATS), 2010).
In all, about 370,000 compounds went through this assay and about 1,100 (0.3%) were called active. This list was built around the results that the source calls inconclusive (neither active nor inactive); the mix of calls is not that of the screen. Calls come from the whole dose curve; as a rule, active = well fitted activation curve with a large enough effect; inconclusive = small, poorly fitted or top-dose-only effect; inactive = flat fitted curve, though single readings scatter. Potencies of inconclusive entries are doubtful fits and often do not repeat.

target: Relaxin receptor 1 (Homo sapiens) (UniProt Q9HBX9); assay: qHTS Assay for Agonists of the Relaxin Receptor RXFP1; conditions: HEK293T-RXFP1 cAMP TR-FRET, 30 min; series mostly up to 57.5 µM; activation: at the top concentration; note: nearly all actives have a fitted effect of over 60% in size
Procedure, shortened: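 Agonist response is measured as cAMP accumulation in an RXFP1-transfected HEK293T line under PDE4 inhibition. Values are scaled between buffer-only and 29 nM porcine relaxin, and EC50s come from standard Hill equation fits.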
% is set by controls: 0 for no effect and ±100 for the full control effect; potency is the fitted concentration of half-maximal effect; tags give direction and shape of the fitted curve.

Sequence of UniProt Q9HBX9 (Q9HBX9 whole entry, looked up): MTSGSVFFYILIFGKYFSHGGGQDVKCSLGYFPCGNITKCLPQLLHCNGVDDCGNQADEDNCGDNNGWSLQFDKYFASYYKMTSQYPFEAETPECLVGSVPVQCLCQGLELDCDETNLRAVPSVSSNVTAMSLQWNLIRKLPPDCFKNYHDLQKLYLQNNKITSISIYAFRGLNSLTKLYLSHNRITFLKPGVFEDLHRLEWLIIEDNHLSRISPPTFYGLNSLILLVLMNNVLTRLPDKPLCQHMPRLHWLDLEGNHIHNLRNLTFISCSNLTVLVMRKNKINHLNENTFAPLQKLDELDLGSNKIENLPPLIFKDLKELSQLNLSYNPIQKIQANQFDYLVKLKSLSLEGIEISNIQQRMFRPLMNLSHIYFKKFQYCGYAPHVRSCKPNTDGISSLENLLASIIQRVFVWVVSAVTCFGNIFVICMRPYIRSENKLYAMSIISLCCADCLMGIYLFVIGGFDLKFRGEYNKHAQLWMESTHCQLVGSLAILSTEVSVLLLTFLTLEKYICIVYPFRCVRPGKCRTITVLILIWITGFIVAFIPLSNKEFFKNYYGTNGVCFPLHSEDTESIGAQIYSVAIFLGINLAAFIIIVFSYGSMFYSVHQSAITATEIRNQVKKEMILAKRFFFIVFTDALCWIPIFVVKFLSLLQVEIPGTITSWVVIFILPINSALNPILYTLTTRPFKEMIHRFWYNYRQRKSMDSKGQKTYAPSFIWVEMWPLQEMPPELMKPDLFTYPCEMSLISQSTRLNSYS

Question: With `Cc1ccc(Cn2c(SCc3ccc(C(=O)N4CCCCC4)cc3)nc3ccncc32)cc1` as the compound, how does the “activation” value read?
Answer: inactive: 8.89%

Question: `COc1ccc(N2CCN(C(=O)CCc3nnc4ccc(N5CCOCC5)nn34)CC2)cc1` was tested. Which Potency did it give?
Answer: inconclusive: 14.1 µM [activator, partial curve]

Question: How did the Potency turn out when `COC(=O)CSc1nc(Cc2ccccc2)nc2ccccc12` was run?
Answer: inconclusive: 20 µM [activator, partial curve]

Question: How did the “activation” value turn out when `Cc1ccc(S(=O)(=O)N(C)CC(=O)Nc2cc(C)ccn2)cc1` was run?
Answer: inactive: -0.726%

Question: For `O=C(Nc1cccc(C(=O)OCc2cc(=O)n3ccsc3n2)c1)c1ccc(F)cc1`, which Potency is on record?
Answer: inconclusive: 35.5 µM [activator, single point]

Question: `Cc1nn(C)cc1C(N)=O` was tested. Which “activation” value did it give?
Answer: inactive: -0.544%

Question: For `CC(=O)N1CCc2cc(CNS(=O)(=O)c3ccccc3C(F)(F)F)ccc21`, which Potency is on record?
Answer: inconclusive: 39.8 µM [activator, single point]

Question: For `N=C1C(c2nc3ccccc3[nH]2)=C(O)CN1c1ccccc1`, which Potency is on record?
Answer: inconclusive: 39.8 µM [activator, single point]

Question: Which Potency does the source give for `COc1cccc(NC(=O)Cn2c(=O)c3cccn3c3ccc(F)cc32)c1` here?
Answer: inconclusive: 25.1 µM [activator, single point]

Question: Which “activation” value does the source give for `COc1ccccc1/C=C/C=N/n1c(-c2ccc(Cl)cc2)n[nH]c1=S` here?
Answer: inactive: -0.507%

Question: For `COc1cccc(-c2nnc(SCC(=O)N3CCc4ccccc43)o2)c1`, which Potency is on record?
Answer: inconclusive: 39.8 µM [activator, single point]

Question: With `CCS(=O)(=O)c1c(S(=O)(=O)CC)c2cc(C(C)(C)C)ccn2c1C(=O)c1ccc(F)cc1` as the compound, how does the Potency read?
Answer: inconclusive: 39.8 µM [activator, single point]

Question: With `COCCN=C1Sc2nc3cc4c(cc3cc2CN1CC1CCCO1)OCO4` (stereo not given) as the compound, how does the Potency read?
Answer: inconclusive: 39.8 µM [activator, single point]

Question: How did the “activation” value turn out when `COc1ccc(-c2n(Cc3ccccc3)c3ccccc3[n+]2Cc2ccccc2)cc1` was run?
Answer: inactive: 1.3%

Question: Which Potency does the source give for `Cc1c(-c2cccc(NC(=O)Cc3ccccc3)c2)nc2ncccn12` here?
Answer: inconclusive: 28.2 µM [activator, single point]

Question: Which “activation” value does the source give for `NC(=O)c1ccc(Cc2ncc(C(F)(F)F)cc2Cl)s1` here?
Answer: inactive: 0.868%

Question: With `O=S(=O)(N/N=C/c1ccc(N2CCOCC2)cc1)c1ccccc1` as the compound, how does the “activation” value read?
Answer: inactive: -0.496%

Question: `O=C(CSc1nc2c(c(C(F)(F)F)n1)CCc1ccccc1-2)NCc1ccco1` was tested. Which Potency did it give?
Answer: inconclusive: 39.8 µM [activator, single point]

Question: With `O=C(CCC1N=C2c3ccccc3N=C(SCc3cccc(Cl)c3)N2C1=O)NCc1ccco1` (stereo not given) as the compound, how does the “activation” value read?
Answer: inactive: -0.431%

Question: With `Cc1c(CCOC(=O)c2cc([N+](=O)[O-])ccc2Cl)sc[n+]1CCCCS(=O)(=O)[O-]` as the compound, how does the Potency read?
Answer: inconclusive: 25.1 µM [activator, partial curve]

Question: How did the Potency turn out when `COc1nc(C)nc2c1sc(=S)n2C` was run?
Answer: inconclusive: 39.8 µM [activator, single point]

Question: With `O=C(CSc1ccc2nnc(-c3ccncc3)n2n1)NCC1CCCO1` (stereo not given) as the compound, how does the Potency read?
Answer: inconclusive: 25.1 µM [activator, partial curve]

Question: For `CCOC(=O)N1CCN(S(=O)(=O)c2ccc(C(=O)Nc3ccc4c(c3)C(=O)NC4=O)cc2)CC1`, which Potency is on record?
Answer: inconclusive: 35.5 µM [activator, single point]

Question: Which Potency does the source give for `C=CCN1C(=O)/C(=C2/Sc3ccc(OC)cc3N2C)SC1=NCc1ccccc1` here?
Answer: inconclusive: 4.47 µM [activator, single point]

Question: How did the Potency turn out when `NC(=O)c1ccc(NC(=O)c2ccc(COc3ccc(F)cc3)o2)cc1` was run?
Answer: inconclusive: 35.5 µM [activator, single point]

Question: Which “activation” value does the source give for `Cc1ccc(C)c(NC(=O)C2CCCN2S(=O)(=O)c2ccc3c(c2)CCCC(=O)N3)c1` (stereo not given) here?
Answer: inactive: 0.266%

Question: For `S=c1[nH]c(-c2ccc(Br)cc2)cn1CCc1ccccc1`, which Potency is on record?
Answer: inconclusive: 39.8 µM [activator, single point]

Question: For `CN(C1CCCCC1)S(=O)(=O)c1ccc2c(c1)CCC(=O)N2`, which “activation” value is on record?
Answer: inactive: 0.325%

Question: `Nc1c(Cl)cc(-c2[nH]c3cc(C(=O)NCCO)ccc3c(=O)c2O)cc1Cl` was tested. Which Potency did it give?
Answer: inconclusive: 31.6 µM [activator, partial curve]

Question: How did the “activation” value turn out when `COc1ccc(N2CC(c3nc(-c4ccccc4C)no3)CC2=O)cc1Cl` (stereo not given) was run?
Answer: inactive: -1.46%

Question: `Brc1ccc2ncnc(NCc3cccnc3)c2c1` was tested. Which Potency did it give?
Answer: inconclusive: 20 µM [activator, partial curve]

Question: For `COc1ccc(-n2cc(-c3ccc(Br)cc3)[nH]c2=S)cc1`, which Potency is on record?
Answer: inconclusive: 22.4 µM [activator, partial curve]

Question: With `Clc1cccc(N2CCN(c3nc4ccccc4c4nc(-c5cccnc5)nn34)CC2)c1` as the compound, how does the Potency read?
Answer: inconclusive: 39.8 µM [activator, single point]

Question: With `O=C(N/N=C/c1cnc(N2CCCCC2)s1)c1ccc(C(F)(F)F)cc1` as the compound, how does the “activation” value read?
Answer: inactive: -1.78%

Question: For `COC(=O)c1cc2cc(Cl)ccc2nc1SC`, which Potency is on record?
Answer: inconclusive: 31.6 µM [activator, single point]

Question: How did the Potency turn out when `Cc1ccc(Cc2nc3ccccc3nc2SCC(=O)N2CCCCC2)cc1` was run?
Answer: inconclusive: 35.5 µM [activator, single point]

Question: For `O=C1C(=O)N(CCCN2CCOCC2)C(c2ccc(Cl)cc2)/C1=C(\O)c1ccc2c(c1)OCCO2` (stereo not given), which Potency is on record?
Answer: inconclusive: 28.2 µM [activator, partial curve]

Question: For `CCOC(=O)Cn1nnc(-c2ccccc2)n1`, which “activation” value is on record?
Answer: inactive: -1.46%

Question: How did the Potency turn out when `O=C(Cn1cc(S(=O)(=O)c2ccc(F)cc2)c(=O)c2cc3c(cc21)OCO3)Nc1ccccc1` was run?
Answer: inconclusive: 31.6 µM [activator, single point]

Question: `COc1ccc(-c2nnn3c2nc(NCc2ccccc2)c2ccccc23)cc1` was tested. Which Potency did it give?
Answer: inconclusive: 28.2 µM [activator, partial curve]

Question: How did the Potency turn out when `CCOC(=O)Cn1c(=NC(=O)CSC(C)=O)sc2cc(OC)ccc21` was run?
Answer: inconclusive: 39.8 µM [activator, single point]

Question: With `CCCCN(CC)C(=O)CSc1nc2c(sc(=S)n2-c2ccc(OCC)cc2)c(=O)[nH]1` as the compound, how does the “activation” value read?
Answer: inactive: -0.685%

Question: For `CC(C)CCNC(=O)c1ccc(Cn2c(=O)c3cccn3c3cccnc32)cc1`, which Potency is on record?
Answer: inconclusive: 39.8 µM [activator, single point]

Question: For `COc1ccc(CN2CCN(Cc3ccc(C)cc3)CC2)c(OC)c1`, which “activation” value is on record?
Answer: inactive: 0.924%

Question: Which Potency does the source give for `CCOc1cccc(C(=O)Nc2ccc3oc(-c4ccc(C(C)(C)C)cc4)nc3c2)c1` here?
Answer: inconclusive: 39.8 µM [activator, single point]
